# Laboratory results from the supplement of paper PMC8728848.
# Some of the results follow.
# B1: FBG5 (Homo sapiens), Q8NI29 (protein)
# chain: MGASVSRGRAARVPAPEPEPEEALDLSQLPPELLLVVLSHVPPRTLLGRCRQVCRGWRALVDGQALWLLILARDHGATGRALLHLARSCQSPARNARPCPLGRFCARRPIGRNLIRNPCGQEGLRKWMVQHGGDGWVVEENRTTVPGAPSQTCFVTSFSWCCKKQVLDLEEEGLWPELLDSGRIEICVSDWWGARHDSGCMYRLLVQLLDANQTVLDKFSAVPDPIPQWNNNACLHVTHVFSNIKMGVRFVSFEHRGQDTQFWAGHYGARVTNSSVIVRVRLS
# Experiments:
# Assay in all cases: glycan array binding signal (z-score within array); higher = stronger binding
# Settings in all cases: glycan notation: IUPAC condensed, linker removed
# [1] = molecular target: Neu5Ac(a2-3)Gal(b1-4)[Fuc(a1-3)]GlcNAc(b1-3)Gal
# Outline: (§1)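 Negative Z-scores can be read as non-binding. The Z-score is calculated within each array and then averaged across arrays of one protein sequence at different concentrations or buffers and across linkers. Arrays, 3228 in all, were curated from the Consortium for Functional Glycomics database and kept only where the protein sequence was available.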
# [2] = molecular target: Neu5Ac(a2-3)Gal(b1-4)[Fuc(a1-3)]GlcNAc(b1-3)Gal(b1-4)GlcNAc
# Outline: as §1
# [3] = molecular target: Neu5Ac(a2-3)Gal(b1-4)[Fuc(a1-3)]GlcNAc(b1-3)Gal(b1-4)[Fuc(a1-3)]GlcNAc(b1-3)Gal(b1-4)[Fuc(a1-3)]GlcNAc
# Outline: as §1
# [4] = molecular target: Neu5Ac(a2-3)Gal(b1-4)[Fuc(a1-3)]GlcNAc6S
# Outline: as §1
# [5] = molecular target: Neu5Ac(a2-3)Gal6S(b1-4)GlcNAc
# Outline: as §1
# [6] = molecular target: Neu5Ac(a2-3)Gal6S(b1-4)[Fuc(a1-3)]GlcNAc
# Outline: as §1
# [7] = molecular target: Neu5Ac(a2-3)GalNAc
# Outline: as §1
# [8] = molecular target: Neu5Ac(a2-3)GalNAc(b1-4)GlcNAc
# Outline: as §1
# [9] = molecular target: Neu5Ac(a2-3)[GalNAc(b1-4)]Gal(b1-4)Glc
# Outline: as §1
# [10] = molecular target: Neu5Ac(a2-3)[GalNAc(b1-4)]Gal(b1-4)GlcNAc
# Outline: as §1
# [11] = molecular target: Neu5Ac(a2-3)[Neu5Ac(a2-6)]GalNAc
# Outline: as §1
# [12] = molecular target: Neu5Ac(a2-6)Gal(b1-4)GlcNAc
# Outline: as §1
# [13] = molecular target: Neu5Ac(a2-6)Gal(b1-4)GlcNAc(b1-2)Man(a1-3)[Neu5Ac(a2-6)Gal(b1-4)GlcNAc(b1-2)Man(a1-6)]Man(b1-4)GlcNAc(b1-4)GlcNAc
# Outline: as §1
# [14] = molecular target: Neu5Ac(a2-6)Gal(b1-4)GlcNAc(b1-3)Gal(b1-4)GlcNAc
# Outline: as §1
# [15] = molecular target: Neu5Ac(a2-6)Gal(b1-4)GlcNAc(b1-3)Gal(b1-4)[Fuc(a1-3)]GlcNAc(b1-3)Gal(b1-4)[Fuc(a1-3)]GlcNAc
# Outline: as §1
# [16] = molecular target: Neu5Ac(a2-6)Gal(b1-4)GlcNAc6S
# Outline: as §1
# [17] = molecular target: Neu5Ac(a2-6)GalNAc
# Outline: as §1
# [18] = molecular target: Neu5Ac(a2-6)GalNAc(b1-4)GlcNAc
# Outline: as §1
# [19] = molecular target: Neu5Ac(a2-8)Neu5Ac
# Outline: as §1
# [20] = molecular target: Neu5Ac(a2-8)Neu5Ac(a2-3)Gal(b1-4)Glc
# Outline: as §1
# [21] = molecular target: Neu5Ac(a2-8)Neu5Ac(a2-3)[GalNAc(b1-4)]Gal(b1-4)Glc
# Outline: as §1
# [22] = molecular target: Neu5Ac(a2-8)Neu5Ac(a2-8)Neu5Ac
# Outline: as §1
# [23] = molecular target: Neu5Ac(a2-8)Neu5Ac(a2-8)Neu5Ac(a2-3)Gal(b1-4)Glc
# Outline: as §1
# [24] = molecular target: Neu5Ac(a2-8)Neu5Ac(a2-8)Neu5Ac(a2-3)[GalNAc(b1-4)]Gal(b1-4)Glc
# Outline: as §1
# [25] = molecular target: Neu5Ac(a2-8)Neu5Ac(a2-8)Neu5Ac(a2-8)Neu5Ac(a2-3)[GalNAc(b1-4)]Gal(b1-4)Glc
# Outline: as §1
# [26] = molecular target: Neu5Ac9Ac(a2-6)Gal(b1-4)GlcNAc
# Outline: as §1
# [27] = molecular target: Neu5Gc(a2-3)Gal(b1-3)GlcNAc
# Outline: as §1
# [28] = molecular target: Neu5Gc(a2-3)Gal(b1-3)[Fuc(a1-4)]GlcNAc
# Outline: as §1
# [29] = molecular target: Neu5Gc(a2-3)Gal(b1-4)Glc
# Outline: as §1
# [30] = molecular target: Neu5Gc(a2-3)Gal(b1-4)GlcNAc
# Outline: as §1
# [31] = molecular target: Neu5Gc(a2-3)Gal(b1-4)[Fuc(a1-4)]GlcNAc
# Outline: as §1
# [32] = molecular target: Neu5Gc(a2-6)Gal(b1-4)GlcNAc
# Outline: as §1
# [33] = molecular target: Neu5Gc(a2-6)GalNAc
# Outline: as §1
binder,measurement,setting,value
B1,glycan array binding signal (z-score),[1],-0.244
same,glycan array binding signal (z-score),[2],0.252
same,glycan array binding signal (z-score),[3],-0.173
same,glycan array binding signal (z-score),[4],-0.175
same,glycan array binding signal (z-score),[5],-0.137
same,glycan array binding signal (z-score),[6],-0.204
same,glycan array binding signal (z-score),[7],-0.242
same,glycan array binding signal (z-score),[8],-0.257
same,glycan array binding signal (z-score),[9],-0.203
same,glycan array binding signal (z-score),[10],-0.181
same,glycan array binding signal (z-score),[11],-0.194
same,glycan array binding signal (z-score),[12],-0.219
same,glycan array binding signal (z-score),[13],-0.187
same,glycan array binding signal (z-score),[14],-0.247
same,glycan array binding signal (z-score),[15],-0.137
same,glycan array binding signal (z-score),[16],-0.232
same,glycan array binding signal (z-score),[17],-0.157
same,glycan array binding signal (z-score),[18],-0.172
same,glycan array binding signal (z-score),[19],-0.224
same,glycan array binding signal (z-score),[20],-0.222
same,glycan array binding signal (z-score),[21],-0.192
same,glycan array binding signal (z-score),[22],-0.251
same,glycan array binding signal (z-score),[23],-0.254
same,glycan array binding signal (z-score),[24],-0.126
same,glycan array binding signal (z-score),[25],-0.159
same,glycan array binding signal (z-score),[26],-0.11
same,glycan array binding signal (z-score),[27],-0.21
same,glycan array binding signal (z-score),[28],-0.243
same,glycan array binding signal (z-score),[29],-0.148
same,glycan array binding signal (z-score),[30],-0.228
same,glycan array binding signal (z-score),[31],-0.225
same,glycan array binding signal (z-score),[32],-0.248
same,glycan array binding signal (z-score),[33],-0.243
